Laboratory results: patent US20210030857A1 (NGM BIOPHARMACEUTICALS, published 2021)

Experiments:
Experiment in all cases: cell-based or functional assay
[1] = molecular target: human beta klotho / human FGFR4 on L6 cells (human, UniProt Q86Z14 1-1044; P22455 22-802)
[2] = molecular target: human beta klotho / human FGFR3c on L6 cells (human, UniProt Q86Z14 1-1044; P22607 23-806)
[3] = molecular target: T1, human beta klotho / human FGFR1c receptor complex on cells (human, UniProt Q86Z14 1-1044; P11362 22-822)
[4] = molecular target: T1, human beta klotho / human FGFR1c …; remark: listed apart in the source

L6 huKLB/R4 reporter assay EC50 [1]: 0.05 nM
L6 huKLB/R3c reporter assay EC50 [2]: 2.1 nM
L6 huKLB/R1c reporter assay EC50 [3]: 2.66 nM
hAdip pERK assay EC50, Experiment - B [4]: 5.49 nM
B1: FGF19 (ligand)
chain: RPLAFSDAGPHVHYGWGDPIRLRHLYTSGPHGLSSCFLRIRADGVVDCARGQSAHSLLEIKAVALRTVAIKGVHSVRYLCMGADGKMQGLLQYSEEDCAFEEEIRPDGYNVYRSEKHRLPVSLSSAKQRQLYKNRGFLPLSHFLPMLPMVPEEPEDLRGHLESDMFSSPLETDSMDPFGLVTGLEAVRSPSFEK
